Data taken from the antibiotic and cytotoxicity screens of Wong et al. (2023).
This is one part of the list.

How the values were obtained:
HSkMC = human skeletal muscle cells; assay: cytotoxicity call (relative viability < 0.9); details: 10 µM
HepG2 = assay: cytotoxicity call (relative viability < 0.9); details: 10 µM
S. aureus RN4220 = assay: growth inhibition call (relative growth <= 0.2); details: 50 µM

| SMILES | cytotoxicity call (HSkMC) | cytotoxicity call (HepG2) | growth inhibition call (S. aureus RN4220) |
| --- | --- | --- | --- |
| O=S(=O)(NCC[C@@H]1CC[C@H](NS(=O)(=O)c2ccccc2Cl)[C@H](CO)O1)c1ccc(Cl)cc1 | inactive | inactive | inactive |
| COc1ccc(NC(=O)Nc2ccc3c(c2)CC(=O)N([C@H](C)CO)C[C@@H](C)[C@H](CN(C)Cc2ccc(Cl)c(Cl)c2)O3)cc1 | inactive | active | inactive |
| C[C@H]1CN([C@@H](C)CO)C(=O)Cc2cc(NS(=O)(=O)c3cccs3)ccc2O[C@H]1CN(C)S(=O)(=O)c1ccccc1 | inactive | inactive | inactive |
| C[C@@H]1CCCCO[C@H](CN(C)S(=O)(=O)c2cccs2)[C@@H](C)CN([C@@H](C)CO)C(=O)c2cc(NC(=O)Nc3cccc4ccccc34)ccc2O1 | inactive | inactive | inactive |
| C[C@H](CO)N1C[C@H](C)[C@@H](CN(C)S(=O)(=O)c2cn(C)cn2)Oc2ccc(NC(=O)Nc3ccc(F)cc3)cc2CC1=O | inactive | inactive | inactive |
| Cc1noc(C)c1S(=O)(=O)Nc1ccc2c(c1)CC(=O)N([C@@H](C)CO)C[C@@H](C)[C@@H](CN(C)S(=O)(=O)c1ccc(Cl)cc1)O2 | inactive | inactive | inactive |
| Cc1noc(C)c1S(=O)(=O)N(C)C[C@H]1Oc2ccc(NC(=O)C3CCCCC3)cc2CC(=O)N([C@H](C)CO)C[C@H]1C | inactive | inactive | inactive |
| C[C@H](CO)N1C[C@H](C)[C@H](CN(C)S(=O)(=O)c2cccs2)Oc2c(NS(=O)(=O)c3ccc(F)cc3)cccc2C1=O | inactive | inactive | inactive |
| C[C@H](CO)N1C[C@H](C)[C@H](CN(C)Cc2ccc(C(=O)O)cc2)OCc2ccccc2-c2c(n(C)c3ccccc23)C1=O | inactive | inactive | active |
| CC(C)(C)[S@@](=O)N1Cc2cc(C(=O)NCc3ccncc3)nc(-c3cccc(-c4ccc(C#N)cc4)c3)c2[C@H]1CCO | inactive | inactive | inactive |
| COc1ccc(S(N)(=O)=O)cc1OC | inactive | inactive | inactive |
| Nc1cccc(/C=C/c2ccccn2)c1 | inactive | inactive | inactive |
| C[C@@H]1CCCCO[C@H](CN(C)Cc2ccccc2)[C@@H](C)CN([C@H](C)CO)C(=O)c2cc(NS(=O)(=O)c3ccc(Cl)cc3)ccc2O1 | inactive | inactive | inactive |
| C[C@H](CO)N1C[C@H](C)[C@H](CN(C)Cc2ccncc2)OCCCC[C@H](C)Oc2ccc(NC(=O)c3ccccc3)cc2C1=O | inactive | inactive | inactive |
| COc1ccc(CN(C)C[C@H]2OCCCC[C@H](C)Oc3ccc(NC(=O)c4ccccc4)cc3C(=O)N([C@H](C)CO)C[C@@H]2C)cc1 | inactive | inactive | inactive |
| C=CCNC(=O)[C@@H]1[C@H]2C(=O)O[C@H](c3ccccc3)[C@H](c3ccccc3)N2[C@H](c2ccc(OCCO)cc2)[C@@]12C(=O)Nc1ccc(C#CC3(O)CCCCCC3)cc12 | inactive | inactive | inactive |
| C[C@@H]1CN([C@H](C)CO)C(=O)c2cc(NS(=O)(=O)c3ccc(F)cc3)ccc2O[C@@H](C)CCCCO[C@@H]1CN(C)S(C)(=O)=O | inactive | inactive | inactive |
| C[C@H]1CCCCO[C@H](CN(C)CC2CCCCC2)[C@@H](C)CN([C@@H](C)CO)C(=O)c2cc(NC(=O)c3ccncc3)ccc2O1 | inactive | inactive | inactive |
| C[C@@H]1Cn2nncc2CO1 | inactive | inactive | inactive |
| COc1ccc(S(=O)(=O)N(C)C[C@@H]2Oc3c(NC(=O)NC(C)C)cccc3C(=O)N([C@H](C)CO)C[C@H]2C)cc1 | inactive | inactive | inactive |
| C[C@H](CO)N1C[C@H](C)[C@H](CN(C)S(=O)(=O)c2ccccc2)Oc2c(NS(=O)(=O)c3ccc(F)cc3)cccc2C1=O | inactive | inactive | inactive |
| COc1ccccc1S(=O)(=O)N(C)C[C@H]1OCc2cn(nn2)CCCC(=O)N([C@@H](C)CO)C[C@H]1C | inactive | inactive | inactive |
| COc1ccc2c3c([nH]c2c1)[C@@H](CO)N(C[C@]13CCN(CC1)C(=O)Nc1c(noc1C)C)C(=O)Nc1ccc(cc1)F | inactive | inactive | inactive |
| C[C@H]1CN([C@@H](C)CO)C(=O)c2cc(C#Cc3cccc(F)c3)cnc2O[C@H]1CN(C)Cc1ccccn1 | inactive | inactive | inactive |
| CC(=O)N[C@@H](CCCNC(=N)N)C(=O)N[C@H]1CSSC[C@@H](C(N)=O)NC(=O)[C@H](Cc2c[nH]c3ccccc23)NC(=O)[C@H](CCCNC(=N)N)NC(=O)[C@@H](Cc2ccccc2)NC(=O)[C@H](Cc2cnc[nH]2)NC(=O)[C@@H](C)NC1=O | inactive | inactive | inactive |
| C[C@@H]1CN([C@H](C)CO)C(=O)c2cc(NS(=O)(=O)c3cccs3)ccc2O[C@@H](C)CCCCO[C@H]1CN(C)C(=O)NC1CCCCC1 | inactive | inactive | inactive |
| CN(C)C(=O)CN1CCC2(CC1)CN(c1cncnc1)C(=O)CO2 | inactive | inactive | inactive |

| SMILES | cytotoxicity call (HSkMC) | cytotoxicity call (HepG2) | growth inhibition call (S. aureus RN4220) |
| --- | --- | --- | --- |
| C=CCOC(=O)[C@@H]1[C@H]2C(=O)O[C@H](c3ccccc3)[C@H](c3ccccc3)N2[C@H](c2ccc(OCCOC(=O)NCCCCCC(=O)NO)cc2)[C@]12C(=O)Nc1ccccc12 | inactive | inactive | inactive |
| O=C(O)CCc1nc2ccccc2[nH]c1=O | inactive | inactive | inactive |
| Cc1noc(C)c1S(=O)(=O)Nc1ccc2c(c1)CC(=O)N([C@@H](C)CO)C[C@@H](C)[C@@H](CN(C)CC1CC1)O2 | inactive | inactive | inactive |
| C[C@@H]1CN([C@@H](C)CO)C(=O)c2cccc(NC(=O)C3CCOCC3)c2O[C@H]1CN(C)C(=O)Nc1ccccc1 | inactive | inactive | inactive |
| Cc1noc(C)c1NC(=O)N(C)C[C@@H]1Oc2c(NC(=O)c3cnccn3)cccc2C(=O)N([C@@H](C)CO)C[C@@H]1C | inactive | inactive | inactive |
| CN1C(=O)c2cc(NC(=O)c3ccc(F)cc3)ccc2OC[C@H]2O[C@H](CC(=O)N3CCOCC3)CC[C@H]21 | inactive | inactive | inactive |
| C[C@H](CO)N1C[C@H](C)[C@H](CN(C)C(=O)Nc2ccc(C(F)(F)F)cc2)Oc2ccc(NC(=O)Cc3cn(C)c4ccccc34)cc2CC1=O | inactive | inactive | inactive |
| COc1ccc(NC(=O)N(C)C[C@H]2OCCCC[C@H](C)Oc3ccc(NS(=O)(=O)c4ccc(OC)cc4)cc3C(=O)N([C@@H](C)CO)C[C@@H]2C)cc1 | inactive | inactive | inactive |
| C[C@@H]1CCCCO[C@H](CN(C)C(=O)c2ccccc2)[C@@H](C)CN([C@@H](C)CO)C(=O)c2cc(NC(=O)c3ccccc3)ccc2O1 | inactive | inactive | inactive |
| COc1ccc(NC(=O)N(C)C[C@@H]2Oc3c(NC(=O)Nc4cccc5ccccc45)cccc3C(=O)N([C@H](C)CO)C[C@@H]2C)cc1 | inactive | inactive | inactive |
| Cc1ccc(S(=O)(=O)N(C)C[C@@H]2OCCCC[C@@H](C)Oc3ccc(NC(=O)Nc4c(C)noc4C)cc3C(=O)N([C@@H](C)CO)C[C@@H]2C)cc1 | inactive | inactive | inactive |
| COc1ccc(S(=O)(=O)N(C)C[C@H]2Oc3cc(C#CC4CC4)ccc3S(=O)(=O)N([C@H](C)CO)C[C@H]2C)cc1 | inactive | inactive | inactive |
| COc1ccc(COC[C@]23N=C4SCc5ccccc5CN4[C@H](c4ccccc4O2)[C@H]3COC(=O)c2ccccc2)cc1 | inactive | inactive | inactive |
| CCOC(=O)C1=C(N)Oc2ccc(Br)cc2[C@H]1[C@H](C#N)C(=O)OCC | inactive | inactive | inactive |
| COc1ccc(S(=O)(=O)N2CCCN(S(=O)(=O)c3ccc(OC)c(OC)c3)CC2)cc1OC | inactive | inactive | inactive |
| Cc1n[nH]c(SCC(=O)O)nc1=O | inactive | inactive | inactive |
| C[C@@H]1CN([C@H](C)CO)C(=O)Cc2cc(NS(=O)(=O)c3cccs3)ccc2O[C@@H]1CN(C)Cc1ccncc1 | inactive | inactive | inactive |
| C[C@H](CO)N1C[C@H](C)[C@@H](CN(C)Cc2ccc(Cl)c(Cl)c2)Oc2c(NC(=O)c3ccc(-c4nccs4)cc3)cccc2C1=O | inactive | inactive | inactive |
| C[C@H]1CN([C@@H](C)CO)C(=O)c2ccccc2-c2ccccc2CO[C@H]1CN(C)S(=O)(=O)c1ccc(C(F)(F)F)cc1 | inactive | inactive | inactive |
| COc1ccc(NC(=O)N(C)C[C@@H]2OCCCC[C@@H](C)Oc3ccc(NC(=O)c4ccccc4)cc3C(=O)N([C@@H](C)CO)C[C@H]2C)cc1 | inactive | inactive | inactive |
| C[C@H]1CN([C@@H](C)CO)C(=O)c2cc(NC(=O)Nc3ccccc3)ccc2O[C@H]1CN(C)Cc1ccc(-c2ccccc2)cc1 | inactive | inactive | inactive |
| C[C@@H]1CN([C@H](C)CO)C(=O)c2cc(NS(=O)(=O)c3ccc(Cl)cc3)ccc2O[C@@H](C)CCCCO[C@@H]1CN(C)C(=O)CCC(F)(F)F | inactive | inactive | inactive |
| C[C@@H]1CN([C@H](C)CO)C(=O)c2ccccc2-c2ccccc2CO[C@@H]1CN(C)Cc1cccc(C(F)(F)F)c1 | inactive | inactive | inactive |
| CO[C@H]1CN(C)C(=O)c2cc(NC(C)=O)ccc2OC[C@H](C)N(S(=O)(=O)c2cn(C)cn2)C[C@@H]1C | inactive | inactive | inactive |
| Cc1ccc(S(=O)(=O)N2C[C@@H](O)COC[C@H]3O[C@@H](CC(=O)N[C@@H]4CCN(Cc5ccccc5)C4)CC[C@@H]32)cc1 | inactive | inactive | inactive |
| CN1CCCN(C(=O)c2ncn3c(C4CCN(S(C)(=O)=O)CC4)ccnc23)CC1 | inactive | inactive | inactive |
